Laboratory results: PubChem BioAssay AID1460 (National Center for Advancing Translational Sciences (NCATS), 2008)
The whole screen tested about 270,000 compounds, of which about 5,800 (2.1%) were called active. The inconclusive results got no clear call from the source; some entries with a clear call stand among them for comparison. Calls come from the whole dose curve; as a rule, active = well fitted inhibition curve with a large enough effect; inconclusive = small, poorly fitted or top-dose-only effect; inactive = flat fitted curve, though single readings scatter. A potency beside an inconclusive call is a rough fit, not a confirmed value.

Molecular target: Microtubule-associated protein tau (Homo sapiens) (UniProt P10636)
UniProt P10636, sequence (P10636 whole entry, looked up): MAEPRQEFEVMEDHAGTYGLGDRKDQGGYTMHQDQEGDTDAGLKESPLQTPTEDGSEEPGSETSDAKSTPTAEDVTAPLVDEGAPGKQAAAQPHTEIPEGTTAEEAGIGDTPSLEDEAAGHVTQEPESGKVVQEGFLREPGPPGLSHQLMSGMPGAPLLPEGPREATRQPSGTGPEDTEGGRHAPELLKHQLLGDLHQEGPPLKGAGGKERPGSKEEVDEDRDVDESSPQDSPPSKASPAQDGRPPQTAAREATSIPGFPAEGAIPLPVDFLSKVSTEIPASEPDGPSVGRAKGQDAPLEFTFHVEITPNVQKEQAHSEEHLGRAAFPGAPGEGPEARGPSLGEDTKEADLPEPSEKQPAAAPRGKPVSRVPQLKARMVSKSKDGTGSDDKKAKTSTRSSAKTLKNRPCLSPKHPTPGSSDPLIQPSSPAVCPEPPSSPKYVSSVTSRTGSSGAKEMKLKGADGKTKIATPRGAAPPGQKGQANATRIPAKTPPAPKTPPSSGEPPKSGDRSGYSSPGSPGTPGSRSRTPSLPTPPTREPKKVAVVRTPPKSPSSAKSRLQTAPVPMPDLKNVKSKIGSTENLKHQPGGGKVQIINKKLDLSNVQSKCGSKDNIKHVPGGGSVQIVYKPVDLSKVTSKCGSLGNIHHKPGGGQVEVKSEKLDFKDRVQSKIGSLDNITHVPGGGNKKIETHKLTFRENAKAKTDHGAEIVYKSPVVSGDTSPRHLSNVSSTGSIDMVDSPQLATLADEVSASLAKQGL
Test: qHTS for Inhibitors of Tau Fibril Formation, Thioflavin T Binding; note: nearly all actives have a fitted effect of over 55% in size
Conditions: recombinant tau K18 P301L (four-repeat tau fragment), heparin-induced fibrillization, ThT fluorescence; series mostly up to 57.4 µM; activity, negative = inhibition: at the top concentration
Outline: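 K18 P301L tau (15 uM + 0.24 uM Alexa 594-tagged), heparin 20 uM, NaOAc pH 7, 6 h 37 C; ThT 30 uM, 1 h RT, ex 450/em 510 nm.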
% is set by controls: 0 for no effect and ±100 for the full control effect; potency is the fitted concentration of half-maximal effect; tags give direction and shape of the fitted curve.

Row | Compound | activity, negative = inhibition | Potency
1 | Cc1ccc(C)c(CN2CCCNC2=O)c1 | inactive: -14.6% | –
2 | Cc1cc(C)c2sc(N3CCN(C(=O)C4CC4)CC3)nc2c1 | – | inconclusive: 1.26 µM [inhibitor, full curve]
3 | COc1cccc(/C=C2/SC(=S)N(CC(=O)Nc3nnc(C)s3)C2=O)c1 | – | active: 1.26 µM
4 | CCCc1cc(=O)[nH]c(SCc2nc3ccc([N+](=O)[O-])cc3[nH]2)n1 | – | inconclusive: 39.8 µM [inhibitor, single point]
5 | O=C(Nc1cccc(S(=O)(=O)NCc2ccco2)c1)c1cc(-c2ccccc2)nc2ccccc12 | inactive: -5.96% | –
6 | Cc1nc2nc(SCC(=O)N(Cc3ccccc3)C(C)C)nn2c(C)c1Cc1ccccc1Cl | – | inconclusive: 3.16 µM [inhibitor, partial curve]
7 | Cc1cc(C)n2nc(C(=O)Nc3ccc4c(c3)OCO4)nc2n1 | – | inconclusive: 14.1 µM [inhibitor, partial curve]
8 | CC(=O)c1ccc(NC(=O)CSc2nc(C3CCCC3)nc3c2c(=O)n(C)c(=O)n3C)cc1 | inactive: -5.64% | –
9 | CCOc1ccc(NC(=O)c2nsc(Cl)c2Cl)cc1 | – | inconclusive: 20 µM [inhibitor, partial curve, poor fit]
10 | Brc1cccc(CN2CCCCCCC2)c1 | inactive: -16.2% | –
11 | COc1ccc2[nH]cc(CCNC(=O)C3CCCO3)c2c1 (stereo not given) | – | inconclusive: 17.8 µM [inhibitor, partial curve]
12 | CCOC(=S)SCC(=O)Nc1nc(-c2ccccc2)cs1 | – | inconclusive: 12.6 µM [inhibitor, partial curve, poor fit]
13 | CCOc1ccc(-c2cc3nc(C4CCN(C(=O)OC(C)(C)C)CC4)c(C(=O)O)cn3n2)cc1 | – | inconclusive: 12.6 µM [inhibitor, partial curve, poor fit]
14 | CCOC(=O)c1cnc2ccc(Cl)cc2c1Nc1ccc(OCC)cc1 | – | inconclusive: 25.1 µM [inhibitor, partial curve]
15 | Cn1c(=O)n(C)c2cc([N+](=O)[O-])c(N3CCN(C(=O)c4ccccc4Br)CC3)cc21 | – | inconclusive: 15.8 µM [inhibitor, partial curve]
16 | O=C(CCl)N(C/C=C/c1ccccc1)c1ccc2c(c1)OCCO2 | – | inconclusive: 17.8 µM [inhibitor, partial curve]
17 | COC(=O)c1ccc2c(c1)c(I)c(-c1ccc(OC)cc1)n2C | – | inconclusive: 11.2 µM [inhibitor, partial curve, poor fit]
18 | CCn1c(=O)n(CC)c2cc(N)ccc21 | – | inconclusive: 3.16 µM [inhibitor, full curve]
19 | COc1ccc(C(=O)Nc2ccccc2-c2nc3ccccc3s2)c(OC)c1 | inactive: -1.3% | –
20 | CCOc1cc(C2Sc3ccccc3NC3=C2C(=O)c2ccccc23)ccc1O (stereo not given) | – | active: 10 µM
21 | Cc1cc2nc(-c3cccnc3SCC(=O)NC3CC3)[nH]c2cc1C | inactive: -5.91% | –
22 | Cc1cc(C)n(CCC(=O)N/N=C/c2ccc(O)cc2)n1 | inactive: -7.04% | –
23 | COc1ccc(Nc2cc(C(=O)NCCCN(C)Cc3ccccc3)c3ccccc3n2)cc1 | – | inconclusive: 12.6 µM [inhibitor, partial curve]
24 | CCOC(=O)c1ccccc1NC(=O)CSc1nnc(Cc2cccn2C)n1-c1ccc(C)cc1 | – | inconclusive: 11.2 µM [inhibitor, partial curve]

Row | Compound | activity, negative = inhibition | Potency
25 | CC12CN3CC(C)(CN(C1)C3c1c[nH]c3ccccc13)C2=O (stereo not given) | inactive: 2.71% | –
26 | COc1ccc(C(=O)c2ccc(OC)c3cccc(O)c23)cc1OC | – | inconclusive: 17.8 µM [inhibitor, partial curve]
27 | Cc1ccc(Nc2ccc(N3CCN(c4ccc([N+](=O)[O-])cc4)CC3)nn2)cc1 | – | inconclusive: 0.562 µM [inhibitor, full curve]
28 | CCc1ccc2nc(SCC(=O)N3CC(=O)Nc4ccccc43)c(C#N)cc2c1 | – | inconclusive: 12.6 µM [inhibitor, partial curve]
29 | Cc1cc(C)c2nc(NC(=O)c3ccc(S(=O)(=O)N4CCC(C)CC4)cc3)sc2c1 | – | inconclusive: 0.0398 µM [activator, full curve, poor fit]
30 | CCOC(=O)C1=C(C)N(c2ccc(Cl)cc2)C(=O)NC1c1cccc([N+](=O)[O-])c1 (stereo not given) | – | inconclusive: 17.8 µM [inhibitor, partial curve]
31 | Cc1ccc(-c2noc(C3CCN(C(=O)Nc4ccc(C#N)cc4)CC3)n2)o1 | – | inconclusive: 35.5 µM [inhibitor, single point]
32 | CSc1ccc(CNC(=O)CCc2c(C)nn(-c3ccc(N4CCCC4)nn3)c2C)cc1 | – | inconclusive: 22.4 µM [inhibitor, single point]
33 | CCCCOc1ccccc1C(=O)Nc1onc2c1CCCC2 | – | inconclusive: 10 µM [inhibitor, partial curve]
34 | Cn1c(=N)n(CC(=O)c2cccs2)c2ccccc21 | – | inconclusive: 0.708 µM [inhibitor, full curve, poor fit]
35 | Cc1cc(C)nc(N/N=C/c2c[nH]c3ccccc23)n1 | – | inconclusive: 0.891 µM [inhibitor, full curve, poor fit]
36 | CCc1ccccc1NC(=O)c1cc2c(Cl)nc3ccccc3c2s1 | inactive: 7.13% | –
37 | COC(=O)/C=C1\SC(N2CCOCC2)=C(c2ccc(OC)cc2)C1=O | – | active: 28.2 µM
38 | Cc1cc(C)c2c(-n3cccc3)c(C(=O)O)sc2n1 | – | inconclusive: 15.8 µM [inhibitor, single point]
39 | Fc1ccc(N2CCN(Cc3cccn3-c3nnc(N4CCN(C5CCCCC5)CC4)s3)CC2)cc1 | – | inconclusive: 39.8 µM [inhibitor, single point]
40 | COc1ccc(C2C(C#N)=C(N)Oc3c2c(C)nn3-c2ccccc2)cc1Cn1nc(C)c([N+](=O)[O-])c1C (stereo not given) | – | inconclusive: 14.1 µM [inhibitor, partial curve]
41 | O=[N+]([O-])c1cccc(-c2nc3ccc([N+](=O)[O-])cc3[nH]2)c1 | – | inconclusive: 17.8 µM [inhibitor, partial curve]
42 | CCc1cccc(C)c1NC(=O)C1C2CCC(O2)C1C(=O)O (stereo not given) | inactive: -2.69% | –
43 | O=C(/C=C/c1ccco1)NCC1CCCO1 (stereo not given) | – | active: 14.1 µM
44 | COc1cc(C2NC(=O)c3c(sc4c3CCN(C)C4)N2)ccc1OC(=O)c1ccccc1 (stereo not given) | – | active: 12.6 µM
45 | COc1ccc(CNc2ccc3c(c2)CCC3)cc1OC | – | inconclusive: 25.1 µM [inhibitor, partial curve]
46 | COc1ccc(C(=O)C(CN2CCOCC2)c2ccccc2)cc1 (stereo not given) | – | inconclusive: 28.2 µM [inhibitor, partial curve]
47 | CN1CN(C)c2cccc3cccc1c23 | – | inconclusive: 15.8 µM [inhibitor, partial curve]
48 | O=C(/C(=N/N=C/c1ccc(O)c(O)c1O)c1ccccc1)c1ccccc1 | inactive: 10.1% | –

Row | Compound | activity, negative = inhibition | Potency
49 | COc1ccc([N+](=O)[O-])cc1NC(=O)CSc1nccc(C)n1 | – | inconclusive: 15.8 µM [inhibitor, single point]
50 | CCCSc1nc2sc3c(c2c(=O)n1-c1cccc(Br)c1)CC(C)(C)OC3 | – | inconclusive: 5.01 µM [inhibitor, partial curve]
51 | Cc1ccccc1Cn1c(SCc2ccc(C(=O)NC3CCCC3)cc2)nc2ccncc21 | inactive: 1.78% | –
52 | CC1CCN(C(=O)/C(=C\c2cccs2)NC(=O)c2ccccc2)CC1 | inactive: -12.3% | –
53 | O=C(CCCN1C(=O)/C(=C/c2cccs2)SC1=S)NNC(=O)c1ccc(F)cc1 | – | inconclusive: 0.562 µM [inhibitor, partial curve]
54 | CC1(C)CC(c2nc(-c3ccc(Br)cc3)cs2)CCS1 (stereo not given) | inactive: -2.65% | –
55 | CCOC(=O)c1ccc(NC2=CC(c3ccc(F)cc3)N(c3ccc(C(=O)OCC)cc3)C2=O)cc1 (stereo not given) | inactive: 1.03% | –
56 | COC(=O)c1ccc(-c2nc3ccc(C)cc3o2)cc1 | – | inconclusive: 1 µM [inhibitor, full curve]
57 | COCCNC(=O)/C(C#N)=C/c1ccc(O)c([N+](=O)[O-])c1 | – | inconclusive: 14.1 µM [inhibitor, partial curve]
58 | O=C(CNC1CCCCC1)Nc1cc(S(=O)(=O)N2CCOCC2)ccc1Cl | inactive: -0.593% | –
59 | CCOC(=O)Nc1c(Cl)n(C)c(=O)n(C)c1=O | inactive: -4.24% | –
60 | CCc1nn(CC(=O)Nc2ccc(C)cc2C)c(=O)c2cc3sccc3n12 | inactive: 17.3% | –
61 | CCCCn1c(O)c(N=NC(=O)c2ccco2)c2ccccc21 | inactive: 6.41% | –
62 | COc1ccc2c(c1)CCc1sc(NC(=O)c3ccco3)nc1-2 | – | active: 12.6 µM
63 | O=C(CNC(=O)c1ccco1)N=Nc1c(O)n(CCc2ccccc2)c2ccccc12 | – | inconclusive: 12.6 µM [inhibitor, partial curve]
64 | COc1ccccc1NC(=O)c1c(C)cc(C)nc1SCC(=O)Nc1cccc(C)c1 | – | inconclusive: 17.8 µM [inhibitor, single point]
65 | CCOC(=O)c1sc2ncnc(NCc3ccco3)c2c1C | – | inconclusive: 22.4 µM [inhibitor, partial curve]
66 | O=C(/C=C/c1ccccc1)c1ccc(O)cc1 | – | inconclusive: 6.31 µM [inhibitor, partial curve, poor fit]
67 | Cc1cc(C)n(-c2nnc(N3CCN(c4ccccc4)CC3)nn2)n1 | – | inconclusive: 7.94 µM [inhibitor, partial curve]
68 | CCOC(=O)c1ccc(NC(=O)CSc2nc(C)c(Cc3ccccc3)c(=O)[nH]2)cc1 | – | inconclusive: 3.16 µM [inhibitor, single point]
69 | CC(NC(=O)/C(C#N)=C1\N=C(NC(=O)c2ccco2)c2ccccc21)c1ccccc1 (stereo not given) | – | inconclusive: 10 µM [inhibitor, partial curve]
70 | CCCC(=O)NCCc1ccc(S(N)(=O)=O)cc1 | inactive: -0.968% | –
